Assay results as given in PubChem BioAssay AID588453 (National Center for Advancing Translational Sciences (NCATS), 2011).
In all, about 390,000 compounds went through this assay and about 4,000 (1%) were called active. The shares of active, inactive and inconclusive entries below differ from those in the screen. Calls come from the whole dose curve; as a rule, active = well fitted inhibition curve with a large enough effect; inconclusive = small, poorly fitted or top-dose-only effect; inactive = no such curve, though single readings can be large or run the other way. A potency beside an inconclusive call is a rough fit, not a confirmed value.

The molecules below were run against Thioredoxin reductase 1, cytoplasmic (Rattus norvegicus) (UniProt O89049) (assay: qHTS Assay for Inhibitors of Mammalian Selenoprotein Thioredoxin Reductase 1 (TrxR1): qHTS). Conditions: recombinant rTrxR1, NADPH fluorescence consumption, selenite substrate; series mostly up to 114 µM.
Procedure, shortened: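 Rat TrxR1 (90 nM in the dispensed reagent) was pre-reduced with 400 uM NADPH for 5 min at room temperature, then incubated with compound for 15 min. After 400 uM selenite was added, NADPH fluorescence (Ex 340/Em 450 nm) was followed for 8 min.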
Note: nearly all actives have a fitted effect of over 65% in size.
Potency is the fitted concentration of half-maximal effect; tags give direction and shape of the fitted curve.

Chain of UniProt O89049 (O89049 whole entry, looked up): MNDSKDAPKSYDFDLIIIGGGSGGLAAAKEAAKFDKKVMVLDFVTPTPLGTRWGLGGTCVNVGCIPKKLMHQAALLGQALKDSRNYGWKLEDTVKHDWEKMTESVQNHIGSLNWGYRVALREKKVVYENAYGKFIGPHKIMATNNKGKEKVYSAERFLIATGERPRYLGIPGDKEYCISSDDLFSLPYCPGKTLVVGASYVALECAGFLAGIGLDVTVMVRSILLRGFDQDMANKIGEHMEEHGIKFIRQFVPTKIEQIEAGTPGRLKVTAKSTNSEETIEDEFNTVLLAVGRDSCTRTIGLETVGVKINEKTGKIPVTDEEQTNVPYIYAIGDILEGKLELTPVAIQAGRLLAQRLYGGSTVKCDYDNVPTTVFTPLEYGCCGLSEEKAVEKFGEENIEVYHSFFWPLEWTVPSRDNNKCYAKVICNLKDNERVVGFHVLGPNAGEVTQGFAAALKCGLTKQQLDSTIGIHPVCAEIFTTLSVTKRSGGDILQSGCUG

Structure (SMILES) | Potency
O=S(=O)(NCCc1csc(-c2ccc(C(F)(F)F)cc2)n1)c1ccc2c(c1)OCCO2 | inactive
Cc1oc2cc(OC(=O)c3ccco3)ccc2c(=O)c1-c1nc2ccccc2n1C | inconclusive: 56.2 µM [inhibitor, single point]
O=C1CCCN1CCCNC(=S)Nc1ccc(Br)cc1Cl | active: 39.8 µM
COc1ccc(OC)c(/C=C/c2[nH]c(=O)[nH]c(=O)c2[N+](=O)[O-])c1 | inconclusive: 22.4 µM [inhibitor, partial curve, poor fit]
CCOc1ccc(C(=O)NC(=S)NC2CCCC2)cc1[N+](=O)[O-] | inconclusive: 79.4 µM [inhibitor, partial curve, poor fit]
CC(=O)c1ccc(-c2ccc(C(=O)Nc3nc(-c4ccccn4)cs3)o2)cc1 | inconclusive: 79.4 µM [inhibitor, partial curve, poor fit]
O=C(Cc1ccc(Br)cc1)N1CCCCCC1 | inactive
COC(=O)c1ccsc1NC(=O)CCS(=O)(=O)c1ccccc1 | inconclusive: 20 µM [inhibitor, full curve]
CC1(C)OC(=O)C(=Cc2ccc(-c3ccc(Cl)c(C(=O)O)c3)o2)C(=O)O1 | inconclusive: 25.1 µM [inhibitor, partial curve, poor fit]
O=C1CCCc2c1nn(-c1ccccc1)[n+]2[O-] | inconclusive: 17.8 µM [inhibitor, full curve]
CCC1(C(=O)OC)NC(c2ccco2)C2C(=O)N(c3ccccc3)C(=O)C21 (stereo not given) | inconclusive: 22.4 µM [inhibitor, partial curve]
CCOC(=O)[C@H]1[C@H]2COc3cc(OC)ccc3[C@@H]2N2C(=O)CN(Cc3ccco3)C(=O)[C@@]12C | inconclusive: 28.2 µM [inhibitor, partial curve]
Cc1ccc(-c2cnc(-c3ccncc3)o2)cc1 | inconclusive: 70.8 µM [inhibitor, single point]
O=c1cc(N=Nc2ccc(Cl)cc2)[nH]c(=O)[nH]1 | inconclusive: 7.08 µM [inhibitor, partial curve]
N#CC1=C(SCc2ccccc2)NC2=C(C(=O)CCC2)C1c1ccc2c(c1)OCO2 (stereo not given) | inconclusive: 2.82 µM [inhibitor, partial curve, poor fit]
Cc1ccc(N(CC(=O)NCCSCc2ccco2)S(=O)(=O)c2ccc(C)cc2)cc1 | inconclusive: 12.6 µM [inhibitor, full curve]
Cc1ccc(-n2ncc(C(=O)NCc3ccc4c(c3)OCO4)c2C2CCN(C(=O)OC(C)(C)C)CC2)c(C)c1 | inactive
NC(=O)CC(NC(=O)Cc1ccc(Cl)cc1)c1ccc(NC2CCN(Cc3ccccc3)CC2)c([N+](=O)[O-])c1 (stereo not given) | inactive
Cc1ccccc1OCC(=O)Nc1ccc(S(=O)(=O)N(Cc2ccccc2)c2ccccc2)cc1 | inactive
CC1=NN(C(N)=S)C(=O)C1N=Nc1cccc(Cl)c1 (stereo not given) | inconclusive: 28.2 µM [inhibitor, partial curve]
Cc1ccc(N2C(=O)CSCC2=O)cc1 | inactive
CCCCC(CC)CNC(=O)Cc1ccc(-n2c(=O)[nH]c3ccccc3c2=O)cc1 (stereo not given) | inactive
Cn1c(=O)c2cn(Cc3ccc(Cl)cc3)cc2n(C)c1=O | inconclusive: 39.8 µM [inhibitor, partial curve, poor fit]

Structure (SMILES) | Potency
CCCn1c(CCC(=O)O)ccc1-c1cccs1 | active: 50.1 µM
CCOC(=O)c1c(-c2ccc(C)o2)csc1NC(=S)NC(=O)N(C)C | active: 11.2 µM
Cc1ccc(CN(C)C2CCN(C)CC2)cc1 | inactive
CC(CNC(=O)c1cnn(-c2ccc(F)cc2)c1-n1cccc1)c1ccccc1 (stereo not given) | inactive
COCCCn1c(=N)c(C(=O)NCC2CCCO2)cc2c(=O)n3cccc(C)c3nc21 (stereo not given) | inconclusive: 25.1 µM [inhibitor, full curve, poor fit]
CCc1ccc(CN(C)CC(=O)Nc2sccc2C#N)cc1 | inconclusive: 89.1 µM [inhibitor, single point]
O=C(/C=C/c1cccnc1)c1ccc(O)cc1 | inactive
CCOC(=O)c1ccc(NC(=O)CCc2ccc(CC)o2)cc1 | inconclusive: 20 µM [inhibitor, full curve]
O=C(c1ccc(CS(=O)(=O)c2ccccc2)o1)N1CCOCC1 | inconclusive: 70.8 µM [inhibitor, partial curve]
Cc1ccc(NS(=O)(=O)c2ccc(NC(=O)CN(c3cc([N+](=O)[O-])ccc3C)S(C)(=O)=O)cc2)c(C)c1 | inactive
S=C(NCc1ccccc1)NC1CCCc2ccccc21 (stereo not given) | inactive
N/C(=N\OC(=O)c1ccco1)c1ccccc1 | inactive
CCN(CC(=O)NCc1cccs1)C(=O)c1ccc(-c2ccc(F)cc2)o1 | inconclusive: 50.1 µM [inhibitor, partial curve, poor fit]
Cc1cc(NS(=O)(=O)c2ccc(Nc3nc(-c4ccc(C)c(C)c4)cs3)cc2)no1 | inconclusive: 89.1 µM [inhibitor, single point]
CNc1ncnc2c1ncn2[C@H]1C[C@H](OP(=O)(O)O)[C@@H](COP(=O)(O)O)O1 | inconclusive: 0.844 µM [inhibitor, full curve, poor fit]
O=C(NNC(=S)NC(=O)c1ccccc1)c1ccc([N+](=O)[O-])cc1 | inconclusive: 15.8 µM [inhibitor, full curve]
Cc1c(-c2ccco2)[n+](=O)c2c(n1[O-])CCC2 | inconclusive: 35.5 µM [inhibitor, single point]
CNc1ccccc1C(C)(C)c1cc(C)[nH]n1 | inactive
O=C(O)CCc1ccc(-c2cccs2)n1NC(=O)c1ccc(Cl)cc1Cl | inconclusive: 39.8 µM [inhibitor, full curve]
O=C(NCc1ccccc1F)C(=O)NCC(c1ccc2c(c1)OCO2)N1CCOCC1 (stereo not given) | inactive
CCn1c(-c2ccc(C)cc2)n[nH]c1=S | inactive
CC(=O)N1C(=S)NC(=O)/C1=C1/C(=O)N(CC(=O)Nc2cccc(C)c2)c2ccccc21 | inconclusive: 31.6 µM [inhibitor, partial curve]
